Results published in a compilation of properties of binary mixtures (doi:10.1021/je990132b).
The densities may have been worked out from excess volumes.

Experiment: xn = mol fraction of the nth substance listed
Conditions: 298.15 K, 100 kPa

COCCOC + CC#N
Conditions | mass density [kg/m3]
x1 = 0.0339 | 783.5
x1 = 0.0637 | 788.9
x1 = 0.0854 | 792.7
x1 = 0.107 | 796.3
x1 = 0.1367 | 800.9
x1 = 0.161 | 804.5
x1 = 0.1843 | 807.8
x1 = 0.2035 | 810.4
x1 = 0.2366 | 814.6
x1 = 0.2722 | 818.8
x1 = 0.2923 | 821
x1 = 0.308 | 822.7
x1 = 0.3167 | 823.6
x1 = 0.3528 | 827.2
x1 = 0.3672 | 828.6
x1 = 0.3901 | 830.7
x1 = 0.4107 | 832.5
x1 = 0.4905 | 838.8
x1 = 0.5391 | 842.2
x1 = 0.5792 | 844.7
x1 = 0.6911 | 851
x1 = 0.7816 | 855.1
x1 = 0.8356 | 857.3
x1 = 0.8598 | 858.2
x1 = 0.8879 | 859.1

COCCOCCOC + CC#N
Conditions | mass density [kg/m3]
x1 = 0.0037 | 778.6
x1 = 0.0121 | 782.6
x1 = 0.023 | 787.6
x1 = 0.0444 | 796.8
x1 = 0.062 | 803.9
x1 = 0.0827 | 811.7
x1 = 0.1207 | 824.8
x1 = 0.1437 | 832.1
x1 = 0.1763 | 841.5
x1 = 0.2139 | 851.4
x1 = 0.2405 | 857.8
x1 = 0.2671 | 863.8
x1 = 0.3139 | 873.3
x1 = 0.38 | 885.1
x1 = 0.4482 | 895.5
x1 = 0.5263 | 905.5
x1 = 0.61 | 914.4
x1 = 0.6524 | 918.3
x1 = 0.7402 | 925.3
x1 = 0.7995 | 929.3
x1 = 0.8671 | 933.2
x1 = 0.9455 | 936.8

COCCOCCOCCOC + CC#N
Conditions | mass density [kg/m3]
x1 = 0.0024 | 778.6
x1 = 0.0088 | 783.3
x1 = 0.021 | 791.8
x1 = 0.0301 | 797.9
x1 = 0.0575 | 814.6
x1 = 0.1477 | 857.9
x1 = 0.1809 | 870.5
x1 = 0.2182 | 882.9
x1 = 0.2528 | 893.2
x1 = 0.2958 | 904.5
x1 = 0.3483 | 916.4
x1 = 0.3885 | 924.4
x1 = 0.4353 | 932.7
x1 = 0.4731 | 938.7
x1 = 0.5015 | 942.8
x1 = 0.5698 | 951.5
x1 = 0.6518 | 960.2
x1 = 0.6661 | 961.6
x1 = 0.8757 | 976.2
x1 = 0.9459 | 979.3

COCCOCCOCCOCCOC + CC#N
Conditions | mass density [kg/m3]
x1 = 0.0021 | 779
x1 = 0.0107 | 787.3
x1 = 0.0144 | 790.8
x1 = 0.0189 | 794.9
x1 = 0.024 | 799.4
x1 = 0.059 | 827
x1 = 0.0874 | 845.9
x1 = 0.1615 | 884.3
x1 = 0.1908 | 896.4
x1 = 0.2188 | 906.6
x1 = 0.2677 | 922.2
x1 = 0.2904 | 928.5
x1 = 0.3252 | 937.3
x1 = 0.3733 | 948
x1 = 0.451 | 962.2
x1 = 0.5325 | 974
x1 = 0.6128 | 983.2
x1 = 0.6695 | 988.7
x1 = 0.7087 | 991.9
x1 = 0.7633 | 996.2
x1 = 0.8021 | 998.5
x1 = 0.9588 | 1005.4
